The other results are listed elsewhere or left out.
B1: PhoQ; a variant is named by its letters at X, in order, P23837 (parent)
chain: MKKLLRLFFPLSLRVRFLLATAAVVLVLSLAYGMVALIGYSVSFDKTTFRLLRGESNLFYTLAKWENNKLHVELPENIDKQSPTMTLIYDENGQLLWAQRDVPWLMKMIQPDWLKSNGFHEIEADVNDTSLLLSGDHSIQQQLQEVREDDDDAEMTHSVAVNVYPATSRMPKLTIVVVDTIPVELKSSYMVWSWFIYVLSANLLLVIPLLWVAAWWSLRPIEALAKEVRELEEHNRELLNPATTRELTSLVRNLNRLLKSERERYDKYRTTLTDLTHSLKTPLXXLQXXLRSLRSEKMSVSDAEPVMLEQISRISQQIGYYLHRASMRGGTLLSRELHPVAPLLDNLTSALNKVYQRKGVNISLDISPEISFVGEQNDFVEVMGNVLDNACKYCLEFVEISARQTDEHLYIVVEDDGPGIPLSKREVIFDRGQRVDTLRPGQGVGLAVAREITEQYEGKIVAGESMLGGARMEVIFGRQHSAPKDE

Variants of: B1
Assay: enrichment ratio after two sorts for PhoP signalling (ratio (wild type AVST 3.29)); higher = more functional
Conditions: with PhoP (E. coli)

For WECA, which enrichment ratio is on record?
Its enrichment ratio is ≤ 0.25.

For RGML, which enrichment ratio is on record?
The enrichment ratio was ≤ 0.25.

With TVHE as the variant, how does the enrichment ratio read?
The enrichment ratio was ≤ 0.25.

For FGID, which enrichment ratio is on record?
Its enrichment ratio is ≤ 0.25.

How did the enrichment ratio turn out when YWIL was run?
Its enrichment ratio is ≤ 0.25.

For LPPF, which enrichment ratio is on record?
The enrichment ratio was ≤ 0.25.

PHPF was tested. Which enrichment ratio did it give?
Its enrichment ratio is ≤ 0.25.

With WEVY as the variant, how does the enrichment ratio read?
The enrichment ratio was ≤ 0.25.

With WKLG as the variant, how does the enrichment ratio read?
Its enrichment ratio is ≤ 0.25.

Which enrichment ratio does the source give for RMGS here?
The enrichment ratio was ≤ 0.25.

Which enrichment ratio does the source give for ATMQ here?
Its enrichment ratio is 3.23.

LHYI was tested. Which enrichment ratio did it give?
The enrichment ratio was ≤ 0.25.

Which enrichment ratio does the source give for EFSD here?
The enrichment ratio was ≤ 0.25.

How did the enrichment ratio turn out when NSME was run?
Its enrichment ratio is ≤ 0.25.

How did the enrichment ratio turn out when PWAA was run?
Its enrichment ratio is ≤ 0.25.

How did the enrichment ratio turn out when MRWS was run?
The enrichment ratio was ≤ 0.25.

With QQRI as the variant, how does the enrichment ratio read?
Its enrichment ratio is ≤ 0.25.

With YLAC as the variant, how does the enrichment ratio read?
Its enrichment ratio is ≤ 0.25.

For FYQE, which enrichment ratio is on record?
The enrichment ratio was ≤ 0.25.

With REQF as the variant, how does the enrichment ratio read?
Its enrichment ratio is ≤ 0.25.

NRDR was tested. Which enrichment ratio did it give?
The enrichment ratio was ≤ 0.25.

For WQSW, which enrichment ratio is on record?
Its enrichment ratio is ≤ 0.25.

How did the enrichment ratio turn out when RAKC was run?
Its enrichment ratio is ≤ 0.25.

For ASHV, which enrichment ratio is on record?
The enrichment ratio was ≤ 0.25.

REIQ was tested. Which enrichment ratio did it give?
Its enrichment ratio is ≤ 0.25.

For NSLS, which enrichment ratio is on record?
Its enrichment ratio is ≤ 0.25.

For TSIP, which enrichment ratio is on record?
The enrichment ratio was ≤ 0.25.

With TDGL as the variant, how does the enrichment ratio read?
The enrichment ratio was ≤ 0.25.

FPFP was tested. Which enrichment ratio did it give?
The enrichment ratio was ≤ 0.25.

For YRLR, which enrichment ratio is on record?
The enrichment ratio was ≤ 0.25.

With PLCG as the variant, how does the enrichment ratio read?
The enrichment ratio was ≤ 0.25.

For VHAE, which enrichment ratio is on record?
The enrichment ratio was ≤ 0.25.

For MTFC, which enrichment ratio is on record?
Its enrichment ratio is ≤ 0.25.

For LFNL, which enrichment ratio is on record?
Its enrichment ratio is ≤ 0.25.

Which enrichment ratio does the source give for FNGW here?
The enrichment ratio was ≤ 0.25.

SSAE was tested. Which enrichment ratio did it give?
Its enrichment ratio is 10.5.

How did the enrichment ratio turn out when PINY was run?
The enrichment ratio was ≤ 0.25.

For RNLD, which enrichment ratio is on record?
Its enrichment ratio is ≤ 0.25.

With TICS as the variant, how does the enrichment ratio read?
Its enrichment ratio is 13.

CFIA was tested. Which enrichment ratio did it give?
The enrichment ratio was ≤ 0.25.

For LKRW, which enrichment ratio is on record?
The enrichment ratio was ≤ 0.25.

Which enrichment ratio does the source give for VAQP here?
Its enrichment ratio is ≤ 0.25.

VQHV was tested. Which enrichment ratio did it give?
Its enrichment ratio is ≤ 0.25.

VMTW was tested. Which enrichment ratio did it give?
The enrichment ratio was ≤ 0.25.

How did the enrichment ratio turn out when YVWI was run?
The enrichment ratio was ≤ 0.25.

How did the enrichment ratio turn out when KVNA was run?
Its enrichment ratio is ≤ 0.25.

Which enrichment ratio does the source give for NDAW here?
The enrichment ratio was ≤ 0.25.

For VRLH, which enrichment ratio is on record?
The enrichment ratio was ≤ 0.25.

For FTEV, which enrichment ratio is on record?
The enrichment ratio was ≤ 0.25.

For FPSG, which enrichment ratio is on record?
The enrichment ratio was ≤ 0.25.

How did the enrichment ratio turn out when YWLL was run?
The enrichment ratio was ≤ 0.25.

KHYY was tested. Which enrichment ratio did it give?
The enrichment ratio was ≤ 0.25.

Which enrichment ratio does the source give for MADV here?
Its enrichment ratio is ≤ 0.25.

Which enrichment ratio does the source give for QRWL here?
Its enrichment ratio is ≤ 0.25.

With ARWH as the variant, how does the enrichment ratio read?
Its enrichment ratio is ≤ 0.25.

With VEMA as the variant, how does the enrichment ratio read?
The enrichment ratio was ≤ 0.25.

For RVCR, which enrichment ratio is on record?
The enrichment ratio was ≤ 0.25.

How did the enrichment ratio turn out when YLDK was run?
The enrichment ratio was ≤ 0.25.

How did the enrichment ratio turn out when IYIF was run?
The enrichment ratio was ≤ 0.25.

With GCPV as the variant, how does the enrichment ratio read?
Its enrichment ratio is ≤ 0.25.

For IAHR, which enrichment ratio is on record?
Its enrichment ratio is ≤ 0.25.

How did the enrichment ratio turn out when TETL was run?
Its enrichment ratio is 9.9.

For ERLH, which enrichment ratio is on record?
The enrichment ratio was ≤ 0.25.

How did the enrichment ratio turn out when NKIH was run?
Its enrichment ratio is ≤ 0.25.

ELEF was tested. Which enrichment ratio did it give?
The enrichment ratio was ≤ 0.25.

How did the enrichment ratio turn out when LDEF was run?
The enrichment ratio was ≤ 0.25.

How did the enrichment ratio turn out when SVDW was run?
The enrichment ratio was ≤ 0.25.

Which enrichment ratio does the source give for GYID here?
Its enrichment ratio is ≤ 0.25.

Which enrichment ratio does the source give for WKRV here?
The enrichment ratio was ≤ 0.25.

For AIGA, which enrichment ratio is on record?
The enrichment ratio was ≤ 0.25.

How did the enrichment ratio turn out when ECNY was run?
The enrichment ratio was ≤ 0.25.

Which enrichment ratio does the source give for QKNI here?
Its enrichment ratio is ≤ 0.25.

For WFTE, which enrichment ratio is on record?
Its enrichment ratio is ≤ 0.25.

With HCQF as the variant, how does the enrichment ratio read?
Its enrichment ratio is ≤ 0.25.

DLRS was tested. Which enrichment ratio did it give?
Its enrichment ratio is ≤ 0.25.

ANPC was tested. Which enrichment ratio did it give?
Its enrichment ratio is ≤ 0.25.

How did the enrichment ratio turn out when GFNR was run?
Its enrichment ratio is ≤ 0.25.

GWIM was tested. Which enrichment ratio did it give?
Its enrichment ratio is ≤ 0.25.

With KRQE as the variant, how does the enrichment ratio read?
Its enrichment ratio is ≤ 0.25.

For TITT, which enrichment ratio is on record?
Its enrichment ratio is 6.6.

With LVTV as the variant, how does the enrichment ratio read?
Its enrichment ratio is ≤ 0.25.

How did the enrichment ratio turn out when PYKD was run?
The enrichment ratio was ≤ 0.25.

With YAKT as the variant, how does the enrichment ratio read?
The enrichment ratio was ≤ 0.25.

With DTNM as the variant, how does the enrichment ratio read?
Its enrichment ratio is ≤ 0.25.

Which enrichment ratio does the source give for DYTQ here?
The enrichment ratio was ≤ 0.25.

How did the enrichment ratio turn out when PADC was run?
The enrichment ratio was ≤ 0.25.

AMWF was tested. Which enrichment ratio did it give?
Its enrichment ratio is ≤ 0.25.

With PYDG as the variant, how does the enrichment ratio read?
Its enrichment ratio is ≤ 0.25.

How did the enrichment ratio turn out when NDGI was run?
The enrichment ratio was ≤ 0.25.

Which enrichment ratio does the source give for PCGG here?
The enrichment ratio was ≤ 0.25.

With IKVN as the variant, how does the enrichment ratio read?
Its enrichment ratio is ≤ 0.25.

For YRRY, which enrichment ratio is on record?
Its enrichment ratio is ≤ 0.25.

Which enrichment ratio does the source give for FDGV here?
Its enrichment ratio is ≤ 0.25.

Which enrichment ratio does the source give for MCFE here?
Its enrichment ratio is ≤ 0.25.

How did the enrichment ratio turn out when YECH was run?
Its enrichment ratio is 6.45.

How did the enrichment ratio turn out when RPMH was run?
The enrichment ratio was ≤ 0.25.

For VVLF, which enrichment ratio is on record?
The enrichment ratio was ≤ 0.25.

How did the enrichment ratio turn out when WWHA was run?
Its enrichment ratio is ≤ 0.25.

IWCD was tested. Which enrichment ratio did it give?
Its enrichment ratio is ≤ 0.25.

Which enrichment ratio does the source give for WNDR here?
Its enrichment ratio is ≤ 0.25.

IWLL was tested. Which enrichment ratio did it give?
The enrichment ratio was ≤ 0.25.

For GMDL, which enrichment ratio is on record?
Its enrichment ratio is ≤ 0.25.

With WGIH as the variant, how does the enrichment ratio read?
Its enrichment ratio is ≤ 0.25.

Which enrichment ratio does the source give for SMLC here?
Its enrichment ratio is 3.5.

With MDFC as the variant, how does the enrichment ratio read?
Its enrichment ratio is ≤ 0.25.

With LAGL as the variant, how does the enrichment ratio read?
Its enrichment ratio is ≤ 0.25.

Which enrichment ratio does the source give for LHEW here?
The enrichment ratio was ≤ 0.25.

Which enrichment ratio does the source give for FCHH here?
Its enrichment ratio is ≤ 0.25.

With QRFV as the variant, how does the enrichment ratio read?
The enrichment ratio was ≤ 0.25.

For GPHF, which enrichment ratio is on record?
The enrichment ratio was ≤ 0.25.

DRNV was tested. Which enrichment ratio did it give?
Its enrichment ratio is ≤ 0.25.

DPPN was tested. Which enrichment ratio did it give?
The enrichment ratio was ≤ 0.25.

Which enrichment ratio does the source give for FVKQ here?
The enrichment ratio was ≤ 0.25.

Which enrichment ratio does the source give for TWAK here?
The enrichment ratio was ≤ 0.25.

How did the enrichment ratio turn out when DHSC was run?
Its enrichment ratio is ≤ 0.25.

Which enrichment ratio does the source give for DFCM here?
The enrichment ratio was ≤ 0.25.

Which enrichment ratio does the source give for QIMQ here?
The enrichment ratio was ≤ 0.25.

For VYLS, which enrichment ratio is on record?
Its enrichment ratio is ≤ 0.25.

Which enrichment ratio does the source give for VNEE here?
The enrichment ratio was ≤ 0.25.

With YHFA as the variant, how does the enrichment ratio read?
The enrichment ratio was ≤ 0.25.

With LFLS as the variant, how does the enrichment ratio read?
The enrichment ratio was ≤ 0.25.

GLMF was tested. Which enrichment ratio did it give?
Its enrichment ratio is 1.04.

How did the enrichment ratio turn out when YQFI was run?
Its enrichment ratio is ≤ 0.25.

With NTPL as the variant, how does the enrichment ratio read?
The enrichment ratio was ≤ 0.25.

With TFWL as the variant, how does the enrichment ratio read?
The enrichment ratio was ≤ 0.25.

With FLCG as the variant, how does the enrichment ratio read?
The enrichment ratio was ≤ 0.25.

For WTGL, which enrichment ratio is on record?
The enrichment ratio was ≤ 0.25.

For YCYM, which enrichment ratio is on record?
Its enrichment ratio is ≤ 0.25.

Which enrichment ratio does the source give for WTSM here?
The enrichment ratio was ≤ 0.25.

How did the enrichment ratio turn out when NKRA was run?
Its enrichment ratio is ≤ 0.25.

VVPR was tested. Which enrichment ratio did it give?
Its enrichment ratio is ≤ 0.25.

How did the enrichment ratio turn out when HDLM was run?
The enrichment ratio was ≤ 0.25.

Which enrichment ratio does the source give for DESV here?
The enrichment ratio was ≤ 0.25.

MIWA was tested. Which enrichment ratio did it give?
The enrichment ratio was ≤ 0.25.

For RPIS, which enrichment ratio is on record?
Its enrichment ratio is ≤ 0.25.

How did the enrichment ratio turn out when GYLH was run?
Its enrichment ratio is ≤ 0.25.

With YEPL as the variant, how does the enrichment ratio read?
The enrichment ratio was ≤ 0.25.

For TDSW, which enrichment ratio is on record?
The enrichment ratio was ≤ 0.25.

With FHTH as the variant, how does the enrichment ratio read?
Its enrichment ratio is ≤ 0.25.

For MHPT, which enrichment ratio is on record?
Its enrichment ratio is ≤ 0.25.

With NRHT as the variant, how does the enrichment ratio read?
Its enrichment ratio is ≤ 0.25.

For LLVD, which enrichment ratio is on record?
Its enrichment ratio is ≤ 0.25.

How did the enrichment ratio turn out when CLCM was run?
Its enrichment ratio is ≤ 0.25.

VMPD was tested. Which enrichment ratio did it give?
The enrichment ratio was ≤ 0.25.

Which enrichment ratio does the source give for TYTA here?
The enrichment ratio was 5.82.

TWLN was tested. Which enrichment ratio did it give?
The enrichment ratio was ≤ 0.25.

With WQYQ as the variant, how does the enrichment ratio read?
Its enrichment ratio is ≤ 0.25.

Which enrichment ratio does the source give for RLAF here?
The enrichment ratio was ≤ 0.25.

With MLIH as the variant, how does the enrichment ratio read?
The enrichment ratio was ≤ 0.25.

For GPYV, which enrichment ratio is on record?
Its enrichment ratio is ≤ 0.25.

For RQPV, which enrichment ratio is on record?
Its enrichment ratio is ≤ 0.25.

For EIHS, which enrichment ratio is on record?
Its enrichment ratio is ≤ 0.25.

MDTH was tested. Which enrichment ratio did it give?
The enrichment ratio was ≤ 0.25.
